The campaign covered roughly 110,000 compounds. About 230 (0.21%) showed an effect of 50% or more. The list shows a part of the results. *1 amine or outer side, *2 acyl side, *3 side chain or, on linkers, in order; H or OH if unused. Where a SMILES comes first, the peptide text is derived from it. Where no end group is shown, it is not given here. [ ]: non-standard residue; d: D form. The star is where a group is joined. Tyr(3,5-I2) = N[C@@H](Cc1cc(I)c(O)c(I)c1)C(=O)O; Morpholide = C1CN(*)CCO1; Cbz = O=C(OCc1ccccc1)*; CO = O=C([*:1])[*:2]
biological target: DPAP1 (Plasmodium falciparum, UniProt Q8IIJ9); assay: primary screen, percent inhibition; read by cleavage of a fluorogenic dipeptide substrate; higher = more effect of the substance; set-up: species or system P. falciparum D10 trophozoite lysates; single well
Sequence (Q8IIJ9 whole entry, looked up): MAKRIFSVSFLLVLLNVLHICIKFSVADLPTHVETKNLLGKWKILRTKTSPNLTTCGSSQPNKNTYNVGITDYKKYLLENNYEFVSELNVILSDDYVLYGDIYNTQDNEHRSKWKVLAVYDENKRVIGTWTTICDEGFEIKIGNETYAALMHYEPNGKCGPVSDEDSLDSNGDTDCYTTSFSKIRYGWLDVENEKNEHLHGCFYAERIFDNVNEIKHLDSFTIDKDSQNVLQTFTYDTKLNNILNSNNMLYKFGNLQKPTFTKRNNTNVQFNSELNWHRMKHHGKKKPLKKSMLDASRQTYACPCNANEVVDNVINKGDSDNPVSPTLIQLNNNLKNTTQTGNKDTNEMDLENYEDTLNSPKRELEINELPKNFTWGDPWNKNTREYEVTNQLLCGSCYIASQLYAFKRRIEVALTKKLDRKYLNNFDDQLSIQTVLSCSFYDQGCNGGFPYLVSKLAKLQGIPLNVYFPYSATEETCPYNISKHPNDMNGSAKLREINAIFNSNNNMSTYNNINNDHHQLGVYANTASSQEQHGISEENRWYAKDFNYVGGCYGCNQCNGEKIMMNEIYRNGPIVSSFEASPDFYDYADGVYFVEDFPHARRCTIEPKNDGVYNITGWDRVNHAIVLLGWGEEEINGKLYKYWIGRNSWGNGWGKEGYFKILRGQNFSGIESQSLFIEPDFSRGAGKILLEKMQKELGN
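Note: 30 min substrate incubation versus DMSO and 10 µM JCP410 controls.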

Molecule	% Inhibition @ 10 uM [%]
CCC(C)C(NC(=O)C(C)NC(=O)CNC(=O)CNC(=O)OCc1ccccc1)C(N)=O (stereo not shown) (Cbz-GGAI-NH2; configuration not given here)	-1.93
CSCC[C@H](NC(=O)[C@@H](NC(=O)[C@H](Cc1cc(I)c(O)c(I)c1)NC(=O)N1CCOCC1)C(C)C)C(=O)N[C@@H](Cc1ccccc1)C(=O)O ({Morpholide-CO}-[Tyr(3,5-I2)]VMF-OH)	-4.72
CSCC[C@H](NC(=O)[C@@H](NC(=O)[C@H](CCCCCN)NC(=O)[C@H](CCC(N)=O)NC(=O)[C@@H]1CCCN1C(=O)[C@@H]1CCCN1)C(C)C)C(=O)N[C@@H](Cc1ccccc1)C(=O)O (HELM PEPTIDE1{P.P.Q.[NCCCCC[C@H](N[*:1])C(=O)[*:2]].V.M.F}$$$$V2.0)	-3.04
Ac-PPQRVMP	-0.778
Ac-PPQRVMF	-7.36
CSCC[C@H](NC(=O)[C@@H](NC(=O)[C@H](Cc1cc(I)c(O)c(I)c1)NC(C)=O)C(C)C)C(=O)N[C@@H](Cc1ccccc1)C(=O)O (HELM PEPTIDE1{[ac].[O=C([C@H](Cc1cc(I)c(O)c(I)c1)N[*:1])[*:2]].V.M.F}$$$$V2.0)	-3.04
CSCC[C@H](NC(=O)[C@@H](NC(=O)[C@H](Cc1cc(I)c(O)c(I)c1)NC(=O)[C@H](CCC(N)=O)NC(=O)[C@@H]1CCCN1C(=O)[C@@H]1CCCN1)C(C)C)C(=O)N[C@@H](Cc1ccccc1)C(=O)O (HELM PEPTIDE1{P.P.Q.[O=C([C@H](Cc1cc(I)c(O)c(I)c1)N[*:1])[*:2]].V.M.F}$$$$V2.0)	-3.04
